# Experimental data from the supplement of paper PMC3334620.
# The full ranking holds about 33,000 sequences; the median of “E-score (-0.5 to 0.5)” is about -0.012, and the highest 2% start at about 0.27. The list shows a part of the results.
# Target: T1, Vhr1 (UniProt P40522)
# T1 sequence: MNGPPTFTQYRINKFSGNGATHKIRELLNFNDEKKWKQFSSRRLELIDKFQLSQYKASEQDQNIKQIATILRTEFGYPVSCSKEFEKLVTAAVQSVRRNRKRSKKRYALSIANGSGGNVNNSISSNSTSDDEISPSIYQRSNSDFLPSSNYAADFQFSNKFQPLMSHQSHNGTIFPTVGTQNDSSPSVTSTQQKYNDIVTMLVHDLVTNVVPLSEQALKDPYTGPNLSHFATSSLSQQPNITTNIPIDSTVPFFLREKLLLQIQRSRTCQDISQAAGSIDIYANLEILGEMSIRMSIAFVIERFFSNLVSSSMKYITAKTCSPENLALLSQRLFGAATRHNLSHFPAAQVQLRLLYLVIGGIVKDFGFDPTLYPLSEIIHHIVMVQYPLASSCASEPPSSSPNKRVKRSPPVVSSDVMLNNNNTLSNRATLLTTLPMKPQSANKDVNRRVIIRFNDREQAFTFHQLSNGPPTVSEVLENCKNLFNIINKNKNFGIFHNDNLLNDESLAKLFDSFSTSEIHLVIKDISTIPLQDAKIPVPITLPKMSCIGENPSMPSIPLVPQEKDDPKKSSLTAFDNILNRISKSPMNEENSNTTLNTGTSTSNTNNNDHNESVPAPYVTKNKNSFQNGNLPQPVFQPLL
# Assay: PBM E-score (8-mer binding enrichment) (E-score (-0.5 to 0.5)); higher = stronger / more preferred TF binding; most listed sequences are background and not binding sites
# Conditions: protein concentration: 200 nM; construct: GST-full length
# Procedure, shortened: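 For each ungapped eight-base word taken together with its reverse complement, the Universal PBM Analysis Suite assigned an E-score. Binding data came from GST-tagged yeast transcription factors, applied at about 100-200 nM, on universal all-10-mer Agilent arrays made double-stranded by primer extension. Fluorescent anti-GST marked bound protein, and scans were normalised with masliner.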
row,Sequence,PBM E-score
1,AGATTGGA,-0.0483
2,CCTATACC,-0.122
3,CGCCAAAC,-0.00831
4,GAACCTAA,-0.105
5,GGAGGGAA,-0.0491
6,CCGATATC,0.0472
7,AAGGGCTG,-0.276
8,GAAGATGC,-0.105
9,AATACAAA,0.221
10,ACGCGGTG,0.0699
11,TACACGCA,-0.11
12,TAAGCCAA,-0.088
13,ACACAATA,0.00792
14,GACAGTGA,0.0962
15,TACGGACA,0.0812
16,AGAATGTC,-0.081
17,ATCTTGTA,-0.0208
18,AGCCTCTG,-0.00921
19,GATCTAGA,-0.174
20,ACATCCAT,0.164
21,AACTAAGA,0.019
22,CCCAAAGA,-0.0649
23,CAGGTGTC,0.219
24,GAAAGCGA,-0.121
25,AACTGCTA,-0.156

row,Sequence,PBM E-score
1,CCTGTTCC,-0.0888
2,CGTCGCAC,0.0343
3,ACGGGATG,0.0719
4,CGGTACGC,0.00824
5,GGGCAGTA,0.00681
6,GGGTCACA,0.179
7,GGAGCGAA,-0.1
8,ATGGCATC,0.00305
9,AGATTTCA,-0.0861
10,TATTAAGA,-0.246
11,GTATTTGA,-0.0018
12,ATCTATTC,0.11
13,ACCCAGAT,-0.0382
14,ATAAGTCC,-0.116
15,GACGTGAC,0.125
16,CGGACGTC,0.107
17,CGCCATAA,0.0256
18,GAGAACAC,-0.0409
19,GAACCACA,0.219
20,TCGAAGCA,-0.278
21,ATCACGCC,0.23
22,CCTACGCC,-0.238
23,AGAGCGAG,0.00159
24,ACACACCA,0.282
25,GTAGACGA,-0.133

row,Sequence,PBM E-score
1,TCATAGAA,0.123
2,GACGATAC,0.0425
3,GAAAGTAC,0.00181
4,AGAGCCCC,-0.205
5,CCACATAC,0.0501
6,ACACTTGA,-0.0584
7,GACCAACA,0.209
8,ATAGAAGA,-0.307
9,ACATAGGT,0.11
10,GCATCATA,0.136
11,GCAAATGA,-0.141
12,AATTTGCT,-0.215
13,CAAATGCA,-0.267
14,TAGTATGA,0.265
15,CGAAAGAG,-0.21
16,AGACAATA,0.156
17,CATTATCA,0.131
18,ACCGCTAA,-0.103
19,AGCGAAAG,-0.203
20,AATTTAAT,-0.0744
21,GCGAGAGC,-0.172
22,GATTACGC,0.138
23,ACCCGGGG,0.0123
24,TAGTGGGA,-0.0353
25,CCGAGCCA,0.148

row,Sequence,PBM E-score
1,TCAGGAAA,-0.205
2,ATATTGGA,0.0284
3,AAGTGATC,0.00255
4,CTCGGTCA,-0.0702
5,CGATGTCA,-0.0363
6,AACGCTAG,-0.177
7,CCATCATC,0.138
8,ACGTCTCT,-0.234
9,AGAACGAG,0.0663
10,TCCAGGCA,0.0954
11,AAGACACA,-0.0153
12,GTCCCGAA,-0.146
13,CAGCATGA,0.198
14,AAATATCT,0.0921
15,ACCGGGTA,0.0893
16,ATATATAT,0.324
17,GCTCACAA,-0.0348
18,ATATCAAC,0.182
19,CGTCCAAC,-0.038
20,CTAGGCTC,-0.22
21,ACCGCGTG,0.0939
22,CACCCGCC,0.329
23,GGAACTAC,-0.0553
24,CGGGAAGC,-0.0043
25,GAAAAACA,-0.106

row,Sequence,PBM E-score
1,CCCTGGCA,-0.162
2,TAGGAGGA,-0.0312
3,ACCTCAAA,-0.0988
4,ACTTACGA,0.0407
5,AGGGTGGA,0.0785
6,ATAGTATG,0.191
7,ATAACCTC,-0.0658
8,CAGTGTAG,0.137
9,CCAAGTAA,-0.0153
10,GTGCCCAC,-0.0897
11,CTTTTAGA,-0.115
12,GACGAGTA,0.077
13,AGAGTTAT,0.0802
14,GACACAGC,0.129
15,CCCCCGCC,-0.109
16,CTTACGGC,-0.333
17,AAACCGGA,-0.0931
18,CCGTCCTC,-0.0308
19,AACCTTTA,-0.174
20,GCTTTGCA,-0.216
21,CTGGCGCA,-0.0167
22,AACACCCC,0.0266
23,AGTGATTA,0.216
24,AATCTGAC,0.0717
25,CCCTCCGA,-0.112

row,Sequence,PBM E-score
1,GGCTCTCA,-0.223
2,CATACTTA,0.0925
3,CAAGTCTA,-0.125
4,TAGGGCGA,-0.015
5,TAATGAGA,-0.102
6,CCTGGTCC,-0.0872
7,ATCCCCAA,0.124
8,CGACTATC,0.145
9,ATAGAAAT,-0.0573
10,CTGTGTCC,0.0632
11,CTTTTCTC,-0.248
12,ACTCTAGC,-0.118
13,GAGCACGC,-0.132
14,AAAGTCGA,-0.0163
15,AACACGCT,0.00013
16,AATCATAC,0.4
17,ACCGTCTA,-0.218
18,CCTATTCG,-0.19
19,CTCTGATA,-0.02
20,CGCGCAGC,-0.0206
21,ACTCGGTA,0.0244
22,AAGATCAG,0.0101
23,TAGCCCTA,-0.161
24,CACGGCGC,0.163
25,GAATTAAC,-0.0106

row,Sequence,PBM E-score
1,CAGTAGAC,-0.0792
2,GGTGGTTA,0.0977
3,CTGGTTGC,0.212
4,AACACAGA,0.14
5,AAAATTGG,-0.0887
6,GGGCTCGA,-0.128
7,CCGTTGTC,0.0439
8,ACGGCTAT,-0.221
9,GAGCCTCA,-0.161
10,GGTTGCAC,0.0671
11,GCCGGAAA,-0.124
12,TAGTCACA,0.394
13,CTAAGGAG,-0.283
14,CCCGTATC,0.00213
15,CCCCCGAA,-0.196
16,CATCCTAC,0.0893
17,AGCCACTG,0.136
18,GAATCTAA,0.00301
19,AGCTGGCC,-0.0882
20,GATAGGGC,-0.198
21,GCGATTTA,-0.133
22,AAAGGAAT,-0.147
